Data taken from the supplement of paper PMC4604168 (melanoma cell lines).
This is one part of the list. Single values are uncertain, as repeats are few or missing.

Legend:
Experiment in all cases: cell count relative to DMSO control; melanoma cells; higher = more viable cells
Conditions in all cases: library dose: standard library concentration; 72 h; first compound 2 µM
G361 = system: G361
IPC-298 = system: IPC-298
IST-MEL1 = system: IST-MEL1
LB2518-MEL = system: LB2518-MEL
LOXIMVI = system: LOXIMVI
MEL-HO = system: MEL-HO
MZ2-MEL = system: MZ2-MEL
MeWo = system: MeWo
RPMI7951 = system: RPMI7951
RVH-421 = system: RVH-421
SkMel28 = system: SkMel28
SkMel2 = system: SkMel2
SkMel30 = system: SkMel30
SkMel5 = system: SkMel5
UACC257 = system: UACC257
UACC62 = system: UACC62
WM115 = system: WM115
WM1716 = system: WM1716
WM3526 = system: WM3526
WM1745 = system: WM1745
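Further: cells treated in 1,536-well plates, then fixed and DAPI-stained, with nuclei counted from automated high-throughput microscope images.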

| SMILES | cell count (G361) [%] | cell count (IPC-298) [%] | cell count (IST-MEL1) [%] | cell count (LB2518-MEL) [%] | cell count (LOXIMVI) [%] | cell count (MEL-HO) [%] | cell count (MZ2-MEL) [%] | cell count (MeWo) [%] | cell count (RPMI7951) [%] | cell count (RVH-421) [%] | cell count (SkMel28) [%] | cell count (SkMel2) [%] | cell count (SkMel30) [%] | cell count (SkMel5) [%] | cell count (UACC257) [%] | cell count (UACC62) [%] | cell count (WM115) [%] | cell count (WM1716) [%] | cell count (WM3526) [%] | cell count (WM1745) [%] |
| --- | --- | --- | --- | --- | --- | --- | --- | --- | --- | --- | --- | --- | --- | --- | --- | --- | --- | --- | --- | --- |
| CCCCCCCCCCCCCCCCCCOP(=O)([O-])OC1CC[N+](C)(C)CC1 [Perifosine] + COc1cc(N2CCC(N3CCN(C)CC3)CC2)ccc1Nc1ncc(Cl)c(Nc2ccccc2S(=O)(=O)C(C)C)n1 [NVP-TAE684] (partner dose 0.4 µM) | 96.7 | 82.6 | 96.2 | 95 | 87 | 78.3 | 86.2 | 74.3 | 32.5 | 88.9 | 68.4 | 65 | 109 | 69.4 | 83.4 | 62.9 | 56.3 | 94.3 | 68.2 |  |
| CCCCCCCCCCCCCCCCCCOP(=O)([O-])OC1CC[N+](C)(C)CC1 [Perifosine] + CO[C@H]1C[C@@H]2CC[C@@H](C)[C@@](O)(O2)C(=O)C(=O)N2CCCC[C@H]2C(=O)O[C@H]([C@H](C)C[C@@H]2CC[C@@H](OCCO)[C@H](OC)C2)CC(=O)[C@H](C)/C=C(\C)[C@@H](O)[C@@H](OC)C(=O)[C@H](C)C[C@H](C)/C=C/C=C/C=C/1C [everolimus] (partner dose 0.1 µM) | 55.4 | 70.9 | 78.8 |  | 72.9 | 73.4 |  | 73.7 | 38.2 | 59.1 | 47 | 71.6 | 72.5 | 60.6 | 103 | 56.5 | 61.6 | 82.5 | 69.5 | 83.8 |
| Cn1sc(=O)n(Cc2ccccc2)c1=O + C=CCNC1=C2C[C@@H](C)C[C@H](OC)[C@H](O)[C@@H](C)/C=C(\C)[C@H](OC(N)=O)[C@@H](OC)/C=C\C=C(/C)C(=O)NC(=CC1=O)C2=O [Tanespimycin] (partner dose 0.01 µM) | 57.5 | 83 | 69.9 |  | 125 | 79.4 |  | 67.9 | 23.5 | 104 | 48 | 77.2 | 79.2 | 47.5 | 89.5 | 45.4 | 25.2 | 76.1 | 74.1 | 55.3 |
| Cn1sc(=O)n(Cc2ccccc2)c1=O + CCCCCCCCCCCC1=C(O)C(=O)C=C(O)C1=O [Embelin] (partner dose 6 µM) | 83.8 | 59.3 | 63.8 | 79.2 | 100 | 83.1 | 81.9 | 115 | 108 | 59.5 | 90.4 | 80.5 | 84.2 | 87.6 | 84.5 | 102 | 73.5 | 82.9 | 79.9 |  |
| Cn1sc(=O)n(Cc2ccccc2)c1=O + Cc1cc([N+](=O)[O-])ccc1NS(=O)(=O)c1cc(Cl)ccc1Cl [FH535] (partner dose 5 µM) | 34.9 | 49.6 | 49.3 | 78.4 | 99.7 | 48.1 | 64 | 82.8 | 74 | 72.8 | 69.8 | 78.1 | 104 | 69.4 | 66.4 | 81.5 | 86.9 | 77.2 | 81.4 |  |
| C[C@@H](N)c1ccc(C(=O)Nc2ccnc3[nH]ccc23)cc1 + C[C@@H](Oc1cc(-c2cnn(C3CCNCC3)c2)cnc1N)c1c(Cl)ccc(F)c1Cl [Crizotinib] (partner dose 1 µM) | 72.2 | 88.9 | 77.7 |  | 146 | 64.9 |  | 50.7 | 46.4 | 45.9 | 63.7 | 82.4 | 77.9 | 47.6 | 68.1 | 68.6 | 65.7 | 38.8 | 72.4 | 33.5 |
| CCCCCCCCCCCCCCCCCCOP(=O)([O-])OC1CC[N+](C)(C)CC1 [Perifosine] + Cn1cncc1[C@@](N)(c1ccc(Cl)cc1)c1ccc2c(c1)c(-c1cccc(Cl)c1)cc(=O)n2C [tipifarnib] (partner dose 0.05 µM) | 76.8 | 85.4 | 94.2 |  | 82 | 90.3 |  | 99.3 | 27.4 | 101 | 42.7 | 68 | 93.3 | 89.5 | 99.1 | 93.1 | 58.3 | 50.1 | 78.1 | 87.3 |
| CCCCCCCCCCCCCCCCCCOP(=O)([O-])OC1CC[N+](C)(C)CC1 [Perifosine] + c1cc(-c2cnn3cc(-c4ccc(OCCN5CCCCC5)cc4)cnc23)ccn1 [Dorsomorphin] (partner dose 2 µM) | 71.8 | 83.6 | 87.3 | 68.7 | 83.2 | 82.1 | 85.5 | 64 | 37.4 | 81.7 | 56.8 | 78.6 | 102 | 104 | 74.3 | 100 | 71.4 | 73 | 86.5 |  |
| CCCCCCCCCCCCCCCCCCOP(=O)([O-])OC1CC[N+](C)(C)CC1 [Perifosine] + COc1ccc(COc2ccc(Cc3cnc(N)nc3N)cc2OC)cc1 [GW2580] (partner dose 5 µM) | 81.1 | 97.6 | 97.8 | 117 | 85.6 | 93.6 | 97.1 | 107 | 43.9 | 91.5 | 62.4 | 100 | 93.6 | 95.7 | 101 | 90.5 | 101 | 103 | 89.3 |  |
| Cn1sc(=O)n(Cc2ccccc2)c1=O + Cn1cc(/C=C2\C(=O)Nc3cccnc32)c2ccccc21 [GW441756] (partner dose 2 µM) | 93.4 | 101 | 99.6 | 102 | 85.6 | 86 | 89 | 90.9 | 73.1 | 116 | 29.1 | 98.3 | 81.7 | 49 | 85.3 | 73 | 105 | 104 | 88.9 |  |
| C[C@@H](N)c1ccc(C(=O)Nc2ccnc3[nH]ccc23)cc1 + Cn1nnc2c(C(N)=O)ncn2c1=O [temozolomide] (partner dose 10 µM) | 85.4 | 100 | 75.6 |  | 81.9 | 74.8 |  | 84.6 | 67.3 | 71.1 | 32.7 | 104 | 68.1 | 68.2 | 73.2 | 59.5 | 86.6 | 32.9 | 103 | 59.1 |
| C[C@@H](N)c1ccc(C(=O)Nc2ccnc3[nH]ccc23)cc1 + COC(=O)c1sccc1S(=O)(=O)Nc1ccc(Nc2ccccc2)cc1OC [GSK0660] (partner dose 5 µM) | 93.6 | 104 | 92.1 | 118 | 105 | 77.1 | 84.7 | 73.4 | 62.2 | 51.5 | 125 | 100 | 67.2 | 63 | 59.2 | 80.8 | 116 | 50.8 | 112 |  |
| Cn1sc(=O)n(Cc2ccccc2)c1=O + COc1ccc(-c2ccc3c(N4CCOCC4)nc(N4C[C@@H](C)O[C@@H](C)C4)nc3n2)cc1CO [KU0063794] (partner dose 0.1 µM) | 69.7 | 72.8 | 88.5 | 97.6 | 65.9 | 74.7 | 83.6 | 70.2 | 71.1 | 102 | 74.5 | 83.6 | 95.3 | 69.6 | 90.7 | 78.1 | 93.3 | 83.5 | 73.9 |  |
| C[C@@H](N)c1ccc(C(=O)Nc2ccnc3[nH]ccc23)cc1 + CCCCCCCCCCCC1=C(O)C(=O)C=C(O)C1=O [Embelin] (partner dose 6 µM) | 73.8 | 58.3 | 52.3 | 96.8 | 63.2 | 57.5 | 42.2 | 61.2 | 60.4 | 47.7 | 80.8 | 83.3 | 102 | 68.4 | 41.2 | 80.3 | 93.3 | 41.7 | 73.6 |  |
| CCCCCCCCCCCCCCCCCCOP(=O)([O-])OC1CC[N+](C)(C)CC1 [Perifosine] + O=C(Nc1ccccc1)c1cc([N+](=O)[O-])ccc1Cl [GW9662] (partner dose 10 µM) | 83.6 | 102 | 93.4 | 67.5 | 88.6 | 89.4 | 95 | 68.3 | 39.9 | 68.5 | 74.7 | 86.8 | 108 | 82 | 77 | 60.7 | 73.9 | 87.4 | 101 |  |
| Cn1sc(=O)n(Cc2ccccc2)c1=O + O=C(Nc1ccccc1)c1cc([N+](=O)[O-])ccc1Cl [GW9662] (partner dose 10 µM) | 82 | 102 | 90 | 90.2 | 82.7 | 97.3 | 79.8 | 76.3 | 64.9 | 80.1 | 48.2 | 85.5 | 86.6 | 66.8 | 85.3 | 80.8 | 71.7 | 99.2 | 80.7 |  |
| Cn1sc(=O)n(Cc2ccccc2)c1=O + C=C(c1ccc(C(=O)O)cc1)c1cc2c(cc1C)C(C)(C)CCC2(C)C [Bexarotene] (partner dose 10 µM) | 72.5 | 66.3 | 77.7 |  | 100 | 104 |  | 104 | 79.1 | 123 | 73.8 | 81.3 | 78.5 | 91.3 | 76.9 | 70.6 | 109 | 83.8 | 81.9 | 106 |
| C[C@@H](N)c1ccc(C(=O)Nc2ccnc3[nH]ccc23)cc1 + COc1cc2ncnc(Nc3ccc(Oc4ccccc4)cc3)c2cc1OC [SrcI1] (partner dose 10 µM) | 49.3 | 66.3 | 76.2 | 130 | 80.1 | 54.8 | 46.3 | 61 | 28.9 | 22.3 | 72.8 | 81.2 | 67.1 | 40.1 | 46.3 | 44.9 | 76.2 | 43.7 | 53.7 |  |
